Laboratory results taken from PMC4336329 (PLoS ONE, 2015).
In all, about 310,000 compounds went through this assay and about 14,000 (4.5%) showed an effect of 50% or more. Effects have a minus sign here. This is one part of the list.

target: human ether-à-go-go-related gene (hERG) potassium channel (human, UniProt Q12809); experiment: primary screen, population patch clamp on CHO cells stably expressing hERG
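Also: peak tail current of the secondary pulse compared with the same well before compound.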

human ether-à-go-go-related gene (hERG) potassium channel, sequence (Q12809 whole entry, looked up): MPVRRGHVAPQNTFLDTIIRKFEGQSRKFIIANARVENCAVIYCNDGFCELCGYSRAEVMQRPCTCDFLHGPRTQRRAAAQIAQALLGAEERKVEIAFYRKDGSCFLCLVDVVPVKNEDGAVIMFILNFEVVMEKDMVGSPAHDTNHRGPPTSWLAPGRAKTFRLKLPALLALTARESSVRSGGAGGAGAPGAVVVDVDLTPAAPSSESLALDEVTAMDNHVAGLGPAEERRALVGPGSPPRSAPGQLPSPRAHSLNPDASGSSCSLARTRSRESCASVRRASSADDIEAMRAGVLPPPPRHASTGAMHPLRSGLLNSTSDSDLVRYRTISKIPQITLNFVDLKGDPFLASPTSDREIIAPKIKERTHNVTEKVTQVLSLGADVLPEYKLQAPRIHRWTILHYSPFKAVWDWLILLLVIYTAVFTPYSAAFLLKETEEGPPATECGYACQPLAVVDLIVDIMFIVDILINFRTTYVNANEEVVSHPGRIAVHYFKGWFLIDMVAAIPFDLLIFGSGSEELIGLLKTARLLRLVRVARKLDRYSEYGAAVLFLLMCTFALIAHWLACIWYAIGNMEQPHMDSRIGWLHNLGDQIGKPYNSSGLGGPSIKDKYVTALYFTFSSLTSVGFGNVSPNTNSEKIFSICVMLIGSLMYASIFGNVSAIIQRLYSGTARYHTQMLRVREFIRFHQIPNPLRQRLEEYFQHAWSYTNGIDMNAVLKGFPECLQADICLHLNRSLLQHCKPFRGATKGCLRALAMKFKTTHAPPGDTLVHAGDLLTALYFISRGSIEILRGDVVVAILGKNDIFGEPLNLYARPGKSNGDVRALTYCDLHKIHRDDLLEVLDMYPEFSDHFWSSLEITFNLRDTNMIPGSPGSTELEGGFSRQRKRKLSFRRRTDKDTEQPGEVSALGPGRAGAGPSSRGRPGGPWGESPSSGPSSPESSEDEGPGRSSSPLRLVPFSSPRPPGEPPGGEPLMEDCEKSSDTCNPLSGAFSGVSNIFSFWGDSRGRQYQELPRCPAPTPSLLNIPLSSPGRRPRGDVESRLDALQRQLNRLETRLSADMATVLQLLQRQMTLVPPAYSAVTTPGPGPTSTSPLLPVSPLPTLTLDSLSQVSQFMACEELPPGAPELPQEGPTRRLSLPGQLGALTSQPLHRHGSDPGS

Row | SMILES | hERG current change (%, negative = inhibition) at 10uM [%]
1 | COc1ccc(/C=N/n2c(-c3n[nH]c4c3CCC4)n[nH]c2=S)cc1 | 22.1
2 | COc1ccccc1C(=O)OCC(=O)Nc1ccc(OC(F)F)cc1 | -32.2
3 | CCC(C)(C)n1nnnc1CN(Cc1cc2cc(OC)c(OC)cc2[nH]c1=O)C1CCCC1 | 8.29
4 | COc1ccc(N2CCN(C(CNS(=O)(=O)c3cccs3)c3cccnc3)CC2)cc1 (centres unmarked) | -72.5
5 | CN1C[C@@H]2C[C@@H](c3cccn3-c3nccs3)N3CCC[C@@]23C1=O | -19.2
6 | COc1ccc(NC(=O)c2ccccc2NC(=O)NC2CCCCC2)cc1 | 6
7 | Cc1ccc(C(=O)Nc2ccccc2N2CCCC2)s1 | -15.8
8 | CCCN(CC(=O)Nc1ccccc1OC)C(=O)CSc1nc(C)cc(C)n1 | -6.81
9 | COc1ccccc1NC(=O)c1ccc2c(c1)CCN2S(C)(=O)=O | 3.9
10 | CC(C)c1nc(SCC(=O)Nc2ccc(C(=O)O)cc2)c2c3c(sc2n1)CCCC3 | 4.84
11 | O=C(Cn1c(-c2ccccc2)noc1=O)Nc1ccc(N2CCCCCC2)cc1 | 6.95
12 | CC1CCCC(NC(=O)c2ccc3c(c2)OCCO3)C1C (centres unmarked) | -10.2
13 | Cc1cc(N2CCN(C)CC2)nc2ccccc12 | -0.28
14 | CC(Sc1n[nH]c(N)n1)C(=O)C12CC3CC(CC(C3)C1)C2 (centres unmarked) | -22.2
15 | CCCCN(C)CCNC(=O)CCn1nc(-c2ccc(C)cc2)ccc1=O | -83.4
16 | COc1ccccc1NS(=O)(=O)c1cc(C(=O)NCc2cccnc2)ccc1C | -23.7
17 | O=C(Cn1c(=O)oc2ccccc21)NC(=O)NCc1ccccc1 | 2.19
18 | O=C(COc1ccc(/C=N/NC(=O)c2cc3ccccc3o2)cc1Cl)Nc1ccccc1 | 6.96
19 | CC(=O)c1ccc(S(=O)(=O)NCCC(=O)NC(C)c2ccncc2)cc1 (centres unmarked) | 8.78
20 | CCOC(=O)N1CCN(C(=O)CCc2ccc(S(=O)(=O)NC(C)C)cc2)CC1 | 14.2
21 | COc1ccccc1CC1CC(=O)N(c2cccc(Cl)c2C)C1=O (centres unmarked) | 9.06
22 | O=C(Nc1ccc2c(c1)OCCO2)C1CC(c2ccccc2Cl)=NO1 (centres unmarked) | 9

Row | SMILES | hERG current change (%, negative = inhibition) at 10uM [%]
23 | COc1ccc(NC(=O)CSc2ccc(F)cc2)cc1S(=O)(=O)N1CCCCC1 | -16
24 | COc1cccc(CC(NC(C)=O)C(=O)NC2CCN(c3nnnn3-c3ccccc3)CC2)c1 (centres unmarked) | 8.16
25 | CCOc1cc2[nH]c(=S)n(CC3CCCN3CC)c(=O)c2cc1OCC (centres unmarked) | -26.5
26 | Cc1ccc(N=Cc2ccc(N(C)C)cc2)cc1C | 9.65
27 | COc1ccc(Cl)cc1NC(=O)NNC(=O)c1ccccn1 | 7.79
28 | COc1cc(OC)c(/C=C2\C(=O)Nc3ccccc32)c(OC)c1 | -0.857
29 | Cc1ccc(CNC(=O)C(=O)NCC2OCCCN2S(=O)(=O)c2ccc(F)cc2)cc1 (centres unmarked) | -12.1
30 | COCCn1cnnc1SCC(=O)Nc1cccc(S(=O)(=O)N(C)c2ccccc2)c1 | -32.1
31 | CN(CC(=O)Nc1ccc2c(c1)OCO2)S(=O)(=O)c1ccc2c(c1)CCC(=O)N2 | -22.7
32 | Cc1ccccc1OCC(=O)NNC=O | 22.9
33 | C/C=C\C(=O)Nc1cccc(C2=NOC3(C2)C[C@@H](C(N)=O)N(C(=O)CCCCC)C3)c1 (some centres unmarked) | -31
34 | Cl.Nc1cccc2c3c(oc12)CCCC3 | 15.3
35 | O=S(=O)(Nc1cc(C(F)(F)F)ccc1N1CCOCC1)c1ccc2ccccc2c1 | -7.3
36 | Cc1cccc(C2Nc3ccccc3C(=O)N2CCc2ccccc2)n1 (centres unmarked) | -12.2
37 | CC12CC(c3ccccc3O1)N(C(=O)c1ccco1)C(=O)N2c1ccccc1 (centres unmarked) | -4.58
38 | CSc1ccc(CN2CCN(CCC(C)C)C(CCO)C2)cc1 (centres unmarked) | -63.3
39 | CCOc1ccc(S(=O)(=O)N2CCN(C(=O)c3cc4c(s3)CCCC4)CC2)cc1 | -7.25
40 | CN(CC(=O)N1CCC(C(N)=O)CC1)S(=O)(=O)c1ccc2ccccc2c1 | 12.3
41 | O=c1oc2cc(S(=O)(=O)NCCCO)ccc2c2ccc(S(=O)(=O)NCCCO)cc12 | 16.1
42 | COc1c2ccoc2c(OC[C@@H](OC(C)=O)C(C)(C)O)c2oc(=O)ccc12 | 19.9
43 | CN(CC(=O)Nc1ccccc1Cl)CC(=O)c1c(N)n(Cc2ccccc2)c(=O)n(C)c1=O | -1.4
44 | CC(C)Cn1cnc2c1c(=O)n(CC(=O)O)c(=O)n2Cc1ccccc1 | 21.8

Row | SMILES | hERG current change (%, negative = inhibition) at 10uM [%]
45 | O=C(O)C(=O)O.S=C(NCCc1ccccc1)N1CCN(Cc2ccccc2)CC1 | 0.0203
46 | Cc1ccc2c(c1)N(S(=O)(=O)c1ccc3c(c1)NC(=O)CC(=O)N3)CCO2 | 9.92
47 | COc1cc(/C=C/C(=O)OCC(=O)Nc2ccc(S(N)(=O)=O)cc2)ccc1O | 0.602
48 | Cc1ccc(C(=O)Nc2ccncc2)cc1[N+](=O)[O-] | 6.17
49 | CC1CC(C)CN(S(=O)(=O)c2ccc3oc(=O)ccc3c2)C1 (centres unmarked) | -59.5
50 | CCc1ccc(NS(=O)(=O)c2c(C)noc2C)cc1 | -10.3
51 | COc1ccc(CNC(=O)Cn2cc([N+](=O)[O-])cn2)cc1 | 16.1
52 | CCOc1ccc(N(CC(=O)NN=C2CCN(C)CC2)S(C)(=O)=O)cc1 | 11.7
53 | CC(=O)Nc1ccc(S(=O)(=O)NCC2CCC(C(=O)N3CCCCC3)CC2)cc1 (centres unmarked) | 11.5
54 | Cc1nc2ccc(NC(=O)c3oc4ccc(F)cc4c3C)cc2s1 | 1.43
55 | CC(C)(O)c1cc(=O)sc2nc3ccccc3n12 | -22.9
56 | CCc1ccccc1NC(=O)CN(C)C(=O)CSc1nnc(Nc2cccc(C)c2)s1 | -1.7
57 | C#CCOc1ccc(C2C3=C(CCCC3=O)N(CC(=O)O)C3=C2C(=O)CCC3)cc1Br | 15.6
58 | CCC1c2ccc(C)n2CCN1C(=O)Nc1cc(Cl)ccc1OC (centres unmarked) | -4.1
59 | COC(=O)C1=C(c2ccc(OC(F)(F)F)cc2)C[C@@H]2CC[C@H]1N2C(=O)N1CCCC1 | -47.9
60 | O=[N+]([O-])c1c(Nc2ccccn2)cc(Cl)c2nonc12 | 9.59
61 | COc1ccccc1-n1c(Cc2ccccc2)nc2ccccc2c1=O | -3.38
62 | CCOC(=O)c1c(C)n(C)c2c(C)cc(O)c(OC(C)=O)c12 | 4
63 | O=C(CN1CCOCC1)NC1CC2CCC1C2 (centres unmarked) | 5.59
64 | NC(N)=N/N=C/c1ccc2cccc(OCc3ccccc3)c2n1 | -45.5
65 | CC(=O)NC(Cc1ccc(N(CCCl)CCCl)cc1)C(=O)NC(CC(C)C)C(=O)O (centres unmarked) | 14.1
66 | CC(NC(=O)c1ccc(Cl)cc1)c1nnc(SCC(=O)NC2=NCCS2)n1C (centres unmarked) | 22.3

Row | SMILES | hERG current change (%, negative = inhibition) at 10uM [%]
67 | CC1(C)Cc2c(sc(NC(=O)c3ccco3)c2C(=O)O)CO1 | -3.94
68 | CS(=O)(=O)c1ccc(C(=O)NC2CCOC2=O)cc1 (centres unmarked) | -13.6
69 | CC(C)(C)c1cc(C(=O)Nc2cccnc2)cc(C(=O)Nc2cccnc2)c1 | -11.5
70 | CCC1(COC(NC(=O)c2cccnc2)(C(F)(F)F)C(F)(F)F)COC1 | 13.3
71 | Cc1ccc(NC(=O)CN(C)C(=O)COC(=O)C(C)(C)Oc2ccc(Cl)cc2)cc1 | 21.6
72 | COC(=O)C1C(=O)CC(C)(O)C(C(=O)OC)C1c1ccc2c(c1)OCO2 (centres unmarked) | 12.9
73 | Cc1ccc(Nc2nc(N)nc(CN3CCN(Cc4ccc5c(c4)OCO5)CC3)n2)c(C)c1 | -76.9
74 | COCCN(C(=O)CSCc1ccc(C)cc1)c1c(N)n(CC(C)C)c(=O)[nH]c1=O | 0.632
75 | O=C(c1ccco1)N1CCN(C(=O)c2cc(-c3ccccc3F)no2)CC1 | -15.8
76 | O=C(Nc1cccs1)Nc1ccc(Br)cc1F | 10.2
77 | CCOC(=O)CSC1=C(C#N)C(c2ccco2)C(C(=O)Nc2cccc(C(F)(F)F)c2)=C(C)N1 (centres unmarked) | -10.7
78 | O=C(Nc1ccc(S(=O)(=O)Nc2ccnn2-c2ccccc2)cc1)C(F)(F)F | 12
79 | COc1cccc(NC(=O)c2cccc(N3C(=O)C4C5C=CC(C5)C4C3=O)c2)c1 (centres unmarked) | -38.4
80 | C/C(=N\NC(=O)Cc1c(C)[nH][nH]c1=O)c1ccc2ccccc2c1 | 2.35
81 | CCCCC(=O)NCc1ccc2c(c1)cc(C)n2C | -0.63
82 | Cc1c(NC(=O)C(C)OC(=O)c2sc3ccccc3c2Cl)c(=O)n(-c2ccccc2)n1C (centres unmarked) | -21.7
83 | Cn1c(=O)c2[nH]c(N3CCCCC3)nc2n(C)c1=O | 6.41
84 | CCOC(=O)c1nnn(-c2nonc2-n2cccc2)c1-c1cccc([N+](=O)[O-])c1 | -5.63
85 | CN(C)CCCN(C(=O)c1ccc(C(=O)c2ccccc2)cc1)c1nc2ccc(F)cc2s1 | -74.9
86 | O=c1[nH]c2ccccc2cc1-c1noc(-c2cccnc2)n1 | 2.74
